Source: patent US20250270339A1 (Alector, published 2025)

T1: Cyno TfR ECD Avi-His (cynomolgus macaque, UniProt Q5RDH6 89-760 (Pongo abelii entry), biotin on the Avi tag (BirA) where captured on streptavidin)
T1 construct: also called Cyno TfR Avi-His; cyno TfR Avi-His
T1 chain: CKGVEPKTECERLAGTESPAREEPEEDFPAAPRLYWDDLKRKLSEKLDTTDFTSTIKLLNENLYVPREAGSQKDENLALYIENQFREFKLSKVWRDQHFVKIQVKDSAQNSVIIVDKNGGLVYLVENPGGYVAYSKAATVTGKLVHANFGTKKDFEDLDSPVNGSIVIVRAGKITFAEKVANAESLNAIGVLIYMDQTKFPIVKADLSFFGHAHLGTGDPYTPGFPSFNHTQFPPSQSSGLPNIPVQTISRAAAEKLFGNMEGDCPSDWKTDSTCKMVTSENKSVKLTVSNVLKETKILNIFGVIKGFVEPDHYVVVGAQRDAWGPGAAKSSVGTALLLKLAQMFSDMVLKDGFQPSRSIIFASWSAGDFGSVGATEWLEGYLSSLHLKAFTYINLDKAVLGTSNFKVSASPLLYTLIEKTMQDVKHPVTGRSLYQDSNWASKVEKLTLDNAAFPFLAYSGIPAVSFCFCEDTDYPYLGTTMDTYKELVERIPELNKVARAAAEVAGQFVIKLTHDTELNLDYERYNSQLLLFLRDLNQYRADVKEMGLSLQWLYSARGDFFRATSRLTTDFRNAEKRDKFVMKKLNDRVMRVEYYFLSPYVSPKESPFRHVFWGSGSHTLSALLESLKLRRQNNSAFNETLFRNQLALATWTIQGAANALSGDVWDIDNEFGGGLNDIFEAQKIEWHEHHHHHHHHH


Biological target: T1, Cyno TfR ECD Avi-His
Experiment: SPR (Carterra LSA), 2+1 immobilised
Procedure: The remaining unconjugated active groups on the chip were then blocked by injecting 1M Ethanolamine pH 8.5 (Carterra) for 7 minutes using the single channel flow cell.
Estimates of affinity were generated by injecting each analyte over the entire antibody array using the single channel flow cell. […] Data were processed and analyzed using NextGenKIT high-throughput kinetics analysis software (Carterra).

binding result	Kd	Binder
binds		TfR9.1B.10 2+1 anti-TfR bispecific antibody (bispecific antibody, human IgG1, kappa, 2+1) heavy 1: EVRLLESGGGLVQPGGSLRLSCAASGFTFSNYAMGWVRQAPGKGLEWVSAISGSGGSTYYADSVKGRFTTSRDDSKNALYLQMNSLRAEDTAVYYCARGGPGWYAADVWGQGTTVTVSSASTKGPSVFPLAPSSKSTSGGTAALGCLVKDYFPEPVTVSWNSGALTSGVHTFPAVLQSSGLYSLSSVVTVPSSSLGTQTYICNVNHKPSNTKVDKKV[here human IgG1 Fc with changes without letters]GGGGSGGGGSGGGGSQVQLVQSGAEVKKPGASVKVSCKASGYTFTEYAMHWVRQAPGQGLEWMGGINPNDGGTSYNQKFKGRVTMTVDTSTSTAYMELSSLRSEDTAVYYCASQGWLLRGGDYWGQGTLVTVSSGGSEGKSSGSGSESKSTGGSDVVMTQSPLSLPVTLGQPASISCKSSQSLLDSDGKTYLNWLQQRPGQSPRRLIYLVSKLDSGVPDRFSGSGSGTDFTLKISRVEAEDVGVYYCWQGTHFPQTFGGGTKVEIK heavy 2: EVRLLESGGGLVQPGGSLRLSCAASGFTFSNYAMGWVRQAPGKGLEWVSAISGSGGSTYYADSVKGRFTTSRDDSKNALYLQMNSLRAEDTAVYYCARGGPGWYAADVWGQGTTVTVSS[here human IgG1 constant region with changes without letters] light: DIQMTQSPSSLSASVGDRVTITCRASQSISSYLNWYQQKPGKAPKLLIYAASSLQSGVPSRFSGSGSGTDFTLTISSLQPEDFATYYCQQADLPAFAFGGGTKVEIKRTVAAPSVFIFPPSDEQLKSGTASVVCLLNNFYPREAKVQWKVDNALQSGNSQESVTEQDSKDSTYSLSSTLTLSKADYEKHKVYACEVTHQGLSSPVTKSFNRGEC
binds		TfR9.1B.9 2+1 anti-TfR bispecific antibody (bispecific antibody, human IgG1, kappa, 2+1) heavy 1: EVRLLESGGGLVQPGGSLRLSCAASGFTFSNYAMGWVRQAPGKGLEWVSAISGSGGSTYYADSVKGRFTTSRDDSKNALYLQMNSLRAEDTAVYYCARGGPGWYAADVWGQGTTVTVSSASTKGPSVFPLAPSSKSTSGGTAALGCLVKDYFPEPVTVSWNSGALTSGVHTFPAVLQSSGLYSLSSVVTVPSSSLGTQTYICNVNHKPSNTKVDKKV[here human IgG1 Fc with changes without letters]GGGGSGGGGSGGGGSQVQLVQSGAEVKKPGASVKVSCKASGYTFTEYAMHWVRQAPGQGLEWMGGINPNDGGTSYNQKFKGRVTMTVDTSTSTAYMELSSLRSEDTAVYYCASQRWLERGGDYWGQGTLVTVSSGGSEGKSSGSGSESKSTGGSDVVMTQSPLSLPVTLGQPASISCKSSVSLLDSDGKTYLNWLQQRPGQSPRRLIYLVSKLDSGVPDRFSGSGSGTDFTLKISRVEAEDVGVYYCWQGTHFPQTFGGGTKVEIK heavy 2: EVRLLESGGGLVQPGGSLRLSCAASGFTFSNYAMGWVRQAPGKGLEWVSAISGSGGSTYYADSVKGRFTTSRDDSKNALYLQMNSLRAEDTAVYYCARGGPGWYAADVWGQGTTVTVSS[here human IgG1 constant region with changes without letters] light: DIQMTQSPSSLSASVGDRVTITCRASQSISSYLNWYQQKPGKAPKLLIYAASSLQSGVPSRFSGSGSGTDFTLTISSLQPEDFATYYCQQADLPAFAFGGGTKVEIKRTVAAPSVFIFPPSDEQLKSGTASVVCLLNNFYPREAKVQWKVDNALQSGNSQESVTEQDSKDSTYSLSSTLTLSKADYEKHKVYACEVTHQGLSSPVTKSFNRGEC
binds		TfR9.1B.11 2+1 anti-TfR bispecific antibody (bispecific antibody, human IgG1, kappa, 2+1) heavy 1: EVRLLESGGGLVQPGGSLRLSCAASGFTFSNYAMGWVRQAPGKGLEWVSAISGSGGSTYYADSVKGRFTTSRDDSKNALYLQMNSLRAEDTAVYYCARGGPGWYAADVWGQGTTVTVSSASTKGPSVFPLAPSSKSTSGGTAALGCLVKDYFPEPVTVSWNSGALTSGVHTFPAVLQSSGLYSLSSVVTVPSSSLGTQTYICNVNHKPSNTKVDKKV[here human IgG1 Fc with changes without letters]GGGGSGGGGSGGGGSQVQLVQSGAEVKKPGASVKVSCKASGYTFTEYAMHWVRQAPGQGLEWMGGINPNDGGTSYNQKFKGRVTMTVDTSTSTAYMELSSLRSEDTAVYYCASQRWLERGGDYWGQGTLVTVSSGGSEGKSSGSGSESKSTGGSDVVMTQSPLSLPVTLGQPASISCKSSQSLLDSDGVTYLNWLQQRPGQSPRRLIYLVSKLDSGVPDRFSGSGSGTDFTLKISRVEAEDVGVYYCWQGTHFPQTFGGGTKVEIK heavy 2: EVRLLESGGGLVQPGGSLRLSCAASGFTFSNYAMGWVRQAPGKGLEWVSAISGSGGSTYYADSVKGRFTTSRDDSKNALYLQMNSLRAEDTAVYYCARGGPGWYAADVWGQGTTVTVSS[here human IgG1 constant region with changes without letters] light: DIQMTQSPSSLSASVGDRVTITCRASQSISSYLNWYQQKPGKAPKLLIYAASSLQSGVPSRFSGSGSGTDFTLTISSLQPEDFATYYCQQADLPAFAFGGGTKVEIKRTVAAPSVFIFPPSDEQLKSGTASVVCLLNNFYPREAKVQWKVDNALQSGNSQESVTEQDSKDSTYSLSSTLTLSKADYEKHKVYACEVTHQGLSSPVTKSFNRGEC

More lines, now with the values behind:

Binder	binding result	Kd
TfR9.1B 2+1 anti-TfR bispecific antibody (bispecific antibody, human IgG1, kappa, 2+1) heavy 1: EVRLLESGGGLVQPGGSLRLSCAASGFTFSNYAMGWVRQAPGKGLEWVSAISGSGGSTYYADSVKGRFTTSRDDSKNALYLQMNSLRAEDTAVYYCARGGPGWYAADVWGQGTTVTVSSASTKGPSVFPLAPSSKSTSGGTAALGCLVKDYFPEPVTVSWNSGALTSGVHTFPAVLQSSGLYSLSSVVTVPSSSLGTQTYICNVNHKPSNTKVDKKV[here human IgG1 Fc with changes without letters]GGGGSGGGGSGGGGSQVQLVQSGAEVKKPGASVKVSCKASGYTFTEYAMHWVRQAPGQGLEWMGGINPNDGGTSYNQKFKGRVTMTVDTSTSTAYMELSSLRSEDTAVYYCASQRWLLRGGDYWGQGTLVTVSSGGSEGKSSGSGSESKSTGGSDVVMTQSPLSLPVTLGQPASISCKSSQSLLDSDGKTYLNWLQQRPGQSPRRLIYLVSKLDSGVPDRFSGSGSGTDFTLKISRVEAEDVGVYYCWQGTHFPQTFGGGTKVEIK heavy 2: EVRLLESGGGLVQPGGSLRLSCAASGFTFSNYAMGWVRQAPGKGLEWVSAISGSGGSTYYADSVKGRFTTSRDDSKNALYLQMNSLRAEDTAVYYCARGGPGWYAADVWGQGTTVTVSS[here human IgG1 constant region with changes without letters] light: DIQMTQSPSSLSASVGDRVTITCRASQSISSYLNWYQQKPGKAPKLLIYAASSLQSGVPSRFSGSGSGTDFTLTISSLQPEDFATYYCQQADLPAFAFGGGTKVEIKRTVAAPSVFIFPPSDEQLKSGTASVVCLLNNFYPREAKVQWKVDNALQSGNSQESVTEQDSKDSTYSLSSTLTLSKADYEKHKVYACEVTHQGLSSPVTKSFNRGEC	binds	
TfR9.1B.14 2+1 anti-TfR bispecific antibody (bispecific antibody, human IgG1, kappa, 2+1) heavy 1: EVRLLESGGGLVQPGGSLRLSCAASGFTFSNYAMGWVRQAPGKGLEWVSAISGSGGSTYYADSVKGRFTTSRDDSKNALYLQMNSLRAEDTAVYYCARGGPGWYAADVWGQGTTVTVSSASTKGPSVFPLAPSSKSTSGGTAALGCLVKDYFPEPVTVSWNSGALTSGVHTFPAVLQSSGLYSLSSVVTVPSSSLGTQTYICNVNHKPSNTKVDKKV[here human IgG1 Fc with changes without letters]GGGGSGGGGSGGGGSQVQLVQSGAEVKKPGASVKVSCKASGYTFTEYAMHWVRQAPGQGLEWMGGINPNDGGTHYNQKFKGRVTMTVDTSTSTAYMELSSLRSEDTAVYYCASQRWLLRGGDYWGQGTLVTVSSGGSEGKSSGSGSESKSTGGSDVVMTQSPLSLPVTLGQPASISCKSSRSLLDSDGKTYLNWLQQRPGQSPRRLIYLVSKLDSGVPDRFSGSGSGTDFTLKISRVEAEDVGVYYCWQGTHFPQTFGGGTKVEIK heavy 2: EVRLLESGGGLVQPGGSLRLSCAASGFTFSNYAMGWVRQAPGKGLEWVSAISGSGGSTYYADSVKGRFTTSRDDSKNALYLQMNSLRAEDTAVYYCARGGPGWYAADVWGQGTTVTVSS[here human IgG1 constant region with changes without letters] light: DIQMTQSPSSLSASVGDRVTITCRASQSISSYLNWYQQKPGKAPKLLIYAASSLQSGVPSRFSGSGSGTDFTLTISSLQPEDFATYYCQQADLPAFAFGGGTKVEIKRTVAAPSVFIFPPSDEQLKSGTASVVCLLNNFYPREAKVQWKVDNALQSGNSQESVTEQDSKDSTYSLSSTLTLSKADYEKHKVYACEVTHQGLSSPVTKSFNRGEC		0.87 µM
